# Reference: PMC6212790
# The other results are listed elsewhere or left out. At the low end of the ranking, values are background and their order means little.
# Target: T1, GST-Rok-C97-191 (UniProt O34857)
# T1 sequence: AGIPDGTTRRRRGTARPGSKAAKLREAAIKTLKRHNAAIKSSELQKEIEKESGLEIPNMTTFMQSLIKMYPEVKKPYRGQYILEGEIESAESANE
# Assay: protein binding microarray;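 note: rank score from −0.5 (least bound) to 0.5 (best bound)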
# Conditions: Rok is a gene silencer of Bacillus subtilis; high values mean tight binding; most listed sequences are background and not binding sites; double strand, one strand shown
row,Sequence,binding signal
1,CAGACAGA,-0.111 E-score
2,GTTCGCAA,0.00581 E-score
3,CCGGGTAG,-0.0837 E-score
4,CACGCGAC,-0.0301 E-score
5,ATGTATAC,0.308 E-score
6,ACTTGCCC,-0.182 E-score
7,TTAATCAA,-0.108 E-score
8,CGGAACCC,-0.139 E-score
9,GGCGCTCA,-0.246 E-score
10,GTTGGAAA,-0.0521 E-score
11,CCGGCCTC,-0.299 E-score
12,ATCACCAG,0.0525 E-score
13,CGCCCGAA,-0.141 E-score
14,CGATCTCC,-0.256 E-score
15,CCCGCGTC,-0.225 E-score
16,ACGGATGC,-0.0285 E-score
17,AACCGGGG,-0.276 E-score
18,GATGCCGA,-0.0224 E-score
19,GACCTAGC,-0.0362 E-score
20,CTAAGCTA,0.242 E-score
21,ATGTAGTG,0.163 E-score
22,AAGCCCCT,-0.265 E-score
23,ATTAGCCA,0.00279 E-score
24,CTTGCCGA,-0.183 E-score
25,ATCTCCGA,0.0447 E-score

row,Sequence,binding signal
1,AAACTTGC,0.0608 E-score
2,AACAAATA,0.24 E-score
3,GAGGTTCC,-0.202 E-score
4,GACACAGC,-0.0384 E-score
5,GCCACGGC,-0.25 E-score
6,ACGCCACC,-0.111 E-score
7,GATAGGCA,-0.0595 E-score
8,AATCGCGA,0.122 E-score
9,ATCCAGAT,-0.142 E-score
10,CCAGTGAG,-0.165 E-score
11,TCAGGCCA,-0.222 E-score
12,ATTGATAG,0.348 E-score
13,GCCAGGAC,-0.223 E-score
14,GAATGTGC,-0.088 E-score
15,ACAAGCTC,-0.0971 E-score
16,CTAAGGAC,0.0801 E-score
17,GCTCCAGC,-0.142 E-score
18,TTAACCAA,0.177 E-score
19,CCGAAAAC,0.168 E-score
20,CTGGGGTA,0.0634 E-score
21,CACGGTCG,-0.219 E-score
22,AGAGCCCT,-0.204 E-score
23,GATTACAA,0.134 E-score
24,CTGTCTAC,0.131 E-score
25,ATGTAGCG,0.163 E-score

row,Sequence,binding signal
1,CACGAGTC,-0.301 E-score
2,TAGTTTAA,0.345 E-score
3,CATTCTGC,-0.173 E-score
4,CTTGCTCC,-0.166 E-score
5,ACTGCCCC,-0.297 E-score
6,CTAGTAAA,0.289 E-score
7,AGCGAGCA,-0.125 E-score
8,AACCTTCT,-0.0307 E-score
9,AAATATGA,0.146 E-score
10,CCCACATC,-0.214 E-score
11,GCGTGCTA,0.174 E-score
12,GGGACAGA,-0.0866 E-score
13,CACGAAAG,-0.0455 E-score
14,CCCTTTGA,-0.221 E-score
15,CCTTTCTC,-0.255 E-score
16,CGTACGCA,-0.0365 E-score
17,GAAAGGGA,-0.179 E-score
18,CCAAAATC,0.0449 E-score
19,AATCTCAA,0.0271 E-score
20,ATTTATCG,0.266 E-score
21,GACGCGTA,-0.0333 E-score
22,ACGGGCCA,0.0456 E-score
23,AAGCACCT,-0.185 E-score
24,CAGGAGTC,-0.0656 E-score
25,CGCTCGCA,-0.29 E-score

row,Sequence,binding signal
1,CTCGTCCA,-0.343 E-score
2,ACTCGAAA,0.136 E-score
3,GACACAAA,0.034 E-score
4,CACAATGG,-0.137 E-score
5,AATGGGCC,-0.26 E-score
6,GATGAATA,0.11 E-score
7,CCGTCCGA,-0.193 E-score
8,ATCATCTG,0.141 E-score
9,ATATGCTA,0.241 E-score
10,CGCTAGCG,0.113 E-score
11,GAATGCCA,0.0134 E-score
12,GTGCAGAA,-0.108 E-score
13,ATACTGAA,0.0579 E-score
14,GTACGTAC,0.245 E-score
15,TGACTGAA,-0.00419 E-score
16,GGCCCGAA,0.0312 E-score
17,CAAACCTA,0.109 E-score
18,CCCACGGA,-0.256 E-score
19,GAACCAGA,-0.123 E-score
20,AAGTAAGG,0.0741 E-score
21,ATATCTCA,0.23 E-score
22,GGTTACTA,0.121 E-score
23,CCTATAAG,0.0895 E-score
24,GGACGCTA,-0.0578 E-score
25,GGTTACCA,-0.245 E-score

row,Sequence,binding signal
1,ATATGACA,-0.00716 E-score
2,AAGGCGTA,-0.0982 E-score
3,ATCGGGTC,-0.251 E-score
4,CCTTGGGA,-0.216 E-score
5,AGGAGATG,-0.179 E-score
6,ACTTCATC,-0.0418 E-score
7,GACCTCCA,-0.271 E-score
8,GATATATC,0.403 E-score
9,GTTTGTAA,0.102 E-score
10,ACGAGGTA,-0.223 E-score
11,AACCGCCT,-0.194 E-score
12,CAGTCGAA,-0.198 E-score
13,CCTTTTTC,-0.173 E-score
14,TCCACCCA,-0.113 E-score
15,CTGACAGC,-0.172 E-score
16,ACCAATGA,-0.027 E-score
17,CTCACTGC,-0.0656 E-score
18,CATGTAGC,0.304 E-score
19,CTCGAGGC,-0.181 E-score
20,CGGCCCAG,-0.203 E-score
21,AATCACGC,0.0805 E-score
22,AAGGTAGG,-0.00436 E-score
23,AAATGCTC,-0.016 E-score
24,AGCGGACC,-0.212 E-score
25,AGGGTACC,-0.245 E-score

row,Sequence,binding signal
1,CGGGTTGC,-0.436 E-score
2,GATAATCC,0.137 E-score
3,CCCGTTCA,-0.0135 E-score
4,GCCTAAAC,-0.107 E-score
5,GGCCATCA,-0.077 E-score
6,ATCCGTGA,-0.00698 E-score
7,CGGGAAAG,-0.0932 E-score
8,AGTGCGGA,0.0282 E-score
9,ACTGTTGC,0.119 E-score
10,AGAAGTGA,0.101 E-score
11,CGCTACCG,-0.00601 E-score
12,AGAGGGAT,-0.0368 E-score
13,AAGAGCCT,-0.267 E-score
14,AATTTGGT,0.212 E-score
15,TATTGAAA,-0.0926 E-score
16,CGATATTC,0.167 E-score
17,ACAATTAC,0.255 E-score
18,ATCTAGAA,0.241 E-score
19,CGATTCGA,-0.0532 E-score
20,CCAGGCCC,-0.389 E-score
21,AGAACTGC,-0.0523 E-score
22,GATAGACC,0.022 E-score
23,CCAACATC,-0.0228 E-score
24,ACAAGGCC,-0.226 E-score
25,ATCGCAAG,0.12 E-score

row,Sequence,binding signal
1,TATGGGAA,-0.066 E-score
2,CAGGGGTC,-0.331 E-score
3,ACCACATA,0.146 E-score
4,GGTTTACA,0.122 E-score
5,CTAATATC,0.141 E-score
6,CGCACCTC,-0.255 E-score
7,CGGCCTCC,-0.345 E-score
8,CTGTCAAC,-0.0452 E-score
9,AAGGGATT,-0.164 E-score
10,ATTTCCCC,-0.0821 E-score
11,ATGAAATC,0.0367 E-score
12,AGTGATGA,0.024 E-score
13,ATCTCAAT,0.0629 E-score
14,CCTACCCG,-0.0318 E-score
15,CCCGTGGC,-0.223 E-score
16,TACCCTCA,-0.129 E-score
17,CTGACCGA,-0.113 E-score
18,ATTCGCTC,-0.063 E-score
19,CTCACATA,0.0489 E-score
20,TATAGCCA,0.0445 E-score
21,CTGGACAC,-0.149 E-score
22,CCCCTTAA,-0.166 E-score
